Measurements reported in ChEMBL document CHEMBL4888484, “Replenishing the malaria drug discovery pipeline: Screening and hit evaluation of the MMV Hit Generation Library 1 (HGL1) against asexual blood stage Plasmodium falciparum ,using a nano luciferase reporter read-out” (2022).
The whole screen tested about 150,000 compounds, of which about 540 (0.36%) showed an effect of 50% or more. The list shows a part of the results.

The molecules below were run on Plasmodium falciparum (assay: Primary screen in NF54 nanoGlo assay, in single point, at 2uM, 72h; a lower Z score goes with more inhibition). Settings: timepoint 72 hour.
Assay type: functional, Erythrocyte

Compound	% Inhibition	Z score
O=C(Nc1ccc(-c2ccn[nH]2)cc1)[C@H]1CCCN(Cc2cc3ccccc3o2)C1	3%	-0.39
CC(C)(C)OC(=O)N1CCCC1C1CCCCN1S(=O)(=O)c1ccc(F)c(F)c1 (stereo not given)	10%	-1.55
CC(C)CC(=O)N1CC(C(=O)N2CCN(C)CC2)C(c2cccc(C(F)(F)F)c2)C1 (stereo not given)	-11%	1.2
Clc1ccc(-c2nnc([C@@H]3CCCCO3)o2)nc1	-4%	0.79
O=S(=O)(CCC1Cc2ccccc2C1)N1CCC[C@@](O)(C(F)(F)F)CC1	34%	-3.86
CC(C)CN1CC2(CCN(C(=O)COC[C@H]3CCCCO3)CC2)CC1=O	-5%	0.66
Cc1ccccc1[C@H]1CCCN(C(=O)CCn2ccc(=O)[nH]c2=O)C1	-1%	0.11
CCC(CC#N)NC(=O)CC(C)c1c(C)n[nH]c1C (stereo not given)	-3%	0.45
O=S1(=O)CCN(c2nnc(Cc3ccc(Cl)cc3)s2)CCC12CCC2	-3%	0.51
O=C(CCCc1cn[nH]c1)N1CCC(O)(CO)CC1	-9%	1.29
COC(=O)C(C)(C)NC(=O)c1ccc(Cl)cc1F	-5%	0.62
C[C@H]1COCCN1Cn1ccc(-c2cccs2)n1	-9%	1.65
CCC(=O)N(CCN(C)C)Cc1c(-c2ccccc2)noc1N(CC)CC	-11%	1.25
CC(C)(C)n1cc(CNc2nnc(-c3ccc4c(c3)OCO4)o2)cn1	-12%	1.09
Cc1ccccc1C(=O)c1cccn1CC(=O)NC1CCCCCC1	-1%	0.24
Cn1nnc2c(C(=O)N3CCCc4cccc(OC(F)F)c43)ccnc21	-5%	0.69
Cc1ccc2c(c1)N(CC(=O)NCCc1ccccc1)C=NS2(=O)=O	-5%	0.56
CN(C)C(=O)N1CCC(CNC(=O)c2ccc(Br)o2)CC1	-5%	0.57
O=C(O)c1sc(Cl)cc1S(=O)(=O)NC1CCN(Cc2cccs2)CC1	2%	-0.24
CC1C(NC(=O)NC[C@@H]2Cc3ccccc3CO2)CC(=O)N1Cc1ccccc1 (stereo not given in full)	-1%	0.11
Cc1cc(C(=O)N[C@H](CO)C(C)C)ccc1Cl	-2%	0.29
O=C(Nc1cccc(-c2ncco2)c1)N(CCO)C1CCCCC1	-4%	0.41

Compound	% Inhibition	Z score
O=C(N[C@H]1C[C@@H]2C[C@H]1CN2C(=O)Nc1ccc(C(F)(F)F)cc1)c1cccs1	-3%	0.42
O=C(N[C@@H](Cc1ccccc1)c1ncon1)c1ccoc1C1CC1	-3%	0.49
CCN(Cc1ccccc1)c1ccc(C(=O)O)cc1NC(=O)c1ccc(Cl)cc1	3%	-0.65
CCn1cnnc1[C@H](C)NS(=O)(=O)CC	-3%	0.39
Cc1nc(-c2ccccc2Cl)sc1CNC(=O)c1cc(-c2cccs2)nn1C	3%	-0.59
Cc1nn(C)c(C)c1CNC(=O)[C@H]1CCCN(S(=O)(=O)c2ccccc2)CCc2nnc(-c3cccnc3)n2CC1	-4%	0.51
CCOCC(=O)OCCc1scnc1C	-2%	0.27
CS(=O)(=O)N[C@H]1CCCN(C(=O)C2=Cc3ccccc3OC2)C1	40%	-3.6
Cc1ccnc(NC(=O)C2=NN(c3ccccc3)[C@H](C(N)=O)C2)c1	-11%	0.97
Cc1ccc(C(=O)N(Cc2cccc(C)c2)c2ccc(CC(=O)NCc3ccccn3)cc2)cc1	-6%	0.78
COCc1nc([C@H]2CCOC2)cc(N2CCC(NS(C)(=O)=O)CC2)n1	9%	-0.81
C[C@H](NCc1ccccc1Cl)C(=O)Nc1ccc2ccccc2c1	-3%	0.37
CC1CC(NCc2ccc3c(c2)OCCO3)C1 (stereo not given)	-10%	1.65
CC(C)(C)CCS(=O)(=O)NCCc1cn([C@H]2CCOC2)nn1	-12%	1.2
O=C(NCC1(CO)CCC1)C1(O)CCC1	6%	-0.98
Cc1ccc(N2C[C@@H](C(=O)N(C)Cc3cc(C)on3)CC2=O)cc1	3%	-0.51
Cn1nc(-c2ccccc2)c(CN(C[C@H]2CCCO2)C(=O)C2CCC2)c1Oc1ccc(F)cc1	-6%	0.58
CC(=O)NCCn1ccnc1-c1ccc(F)c(F)c1F	-9%	1.18
CCC1COCCN1C(=O)C1C2CCCCC21 (stereo not given)	-3%	0.5
Cc1csc2c(N3CCCn4cncc4C3)ncnc12	0%	-0.07
CCCNC(=O)OC[C@H]1CCCCN1Cc1c(CC)nn(C)c1CC	-6%	0.88
c1ccc(-c2nc(NCc3nnc4n3CCC4)c3ccccc3n2)cc1	-2%	0.41

Compound	% Inhibition	Z score
Cc1cccc(C(NC(=O)N2CCC[C@H]2CO)C(F)(F)F)c1 (stereo not given in full)	-6%	1.06
Cc1ccc(-c2cccc(-c3ccn(Cc4c(C)noc4C)n3)c2)c(C)n1	-5%	0.64
CCN(Cc1nc2cc(Cl)ccc2c(=O)[nH]1)C(=O)COc1c(C)cc(Br)cc1Cl	1%	-0.13
COC(=O)C1CC(OC)CN1C(=O)c1cc(C)on1 (stereo not given)	-16%	3
COc1ccc2c(c1)OC13CCN(C)CC1C2C(C(=O)c1ccccc1OC)C(=O)N3 (stereo not given)	58%	-6.85
COc1ccc(CNC(=O)[C@]2(C)Cn3cnc(C(=O)NCc4cccc(OC)c4)c3C(=O)N2C2CC2)cc1	-7%	1.13
F[C@@H]1CN(Cc2cnc3ccccc3c2)C[C@@H]1OCc1nc2ccccc2[nH]1	-10%	1.51
CN(CC(=O)Nc1cccc(F)c1)CC(=O)Nc1ccccc1Cc1ccccc1	11%	-1.23
Cc1ccc(OCc2c(C(=O)N3C[C@@H](C)O[C@@H](C)C3)c(=O)cc(C)n2CCN2CCOCC2)cc1	6%	-0.85
C=C=CCNC(=O)c1nc(C2CC2)no1	5%	-0.73
O=C(NCc1ccc(Cl)cc1)c1nn[nH]c1Nc1ccccc1F	-5%	0.65
COc1nc(NC(=O)Cc2coc(-c3ccc(F)cc3)n2)n[nH]1	1%	-0.15
CCCn1ncc(-c2nc(CC(N)=O)nn2CC(C)(C)O)c1C	-10%	1.7
CC1(CCNC(=O)N2CCCC(C3CCCCO3)C2)CC1(F)Cl (stereo not given)	-7%	0.93
Cc1cccc(C2CC(NC[C@@]3(CCO)CCOC3)C2)c1 (stereo not given in full)	-1%	0.08
CC(C)c1cc(C(=O)N[C@H](CO)Cc2cncs2)no1	1%	-0.18
O=c1c(C(F)(F)F)cccn1Cc1nc2c(F)cccc2[nH]1	-1%	0.22
Nc1nc(C2CC2)ncc1C(=O)NCc1[nH]nc2c1CCCC2	-7%	0.94
CCCn1ccnc1CN1CCN(C)[C@]2(CCC(=O)N(CC3CC3)CC2)C1	-13%	2.14
CC1CN(C(=O)c2ccccc2)OC(c2cccs2)O1 (stereo not given)	-2%	0.28
COc1cc2c(cc1OC)CN(C(=O)c1ccc3nsnc3c1)CC2	-7%	1.04
Cc1[nH]ccc1C(=O)N[C@@H](C)c1cnn(C)c1C	-18%	1.81

Compound	% Inhibition	Z score
COCCn1cc(CNC(=O)CC2(C)CCCC2)c(=O)[nH]c1=O	-9%	1.32
COc1ccc(Br)cc1Cn1nnc(C(=O)O)c1-c1cccnc1	-8%	0.88
CCOc1ccc(-c2cc3cc(OC)c(OC)cc3c[n+]2[C@H](C(=O)O)C(C)C)cc1	15%	-2.39
CCNC(=O)CCCc1nc2cccnc2n1CCOC	-9%	1.09
COc1cc(C)cc(NC(=O)N[C@@H]2COC[C@@H]2Oc2cn[nH]c2)c1C	-14%	1.66
CO[C@@]1(CNc2nc3cc(C)ccc3o2)CCS(=O)(=O)C1	10%	-1.69
CC1(C(=O)Nc2cccc(-c3n[nH]c(=O)[nH]3)c2)CCCCCC1	0%	0.02
CC(=O)Nc1nc(C(=O)N2CCc3c(F)ccc(F)c32)cs1	10%	-1.93
CCN(CC(=O)NC)C(=O)CCN(Cc1ccccc1)C(C)=O	3%	-0.43
O=C(NCCCC1CCCC1)N1CCN(c2nccs2)CC1	-3%	0.42
O=C(NCc1noc2c1CCCC2)[C@H]1C[C@@H]1C1CC1	-4%	0.61
CN1CCN(c2cc(N3CCN(C(=O)Cc4ccc(Cl)cc4)CC3)ncn2)CC1	4%	-0.61
Clc1cccnc1OC[C@H]1CCCOC1	2%	-0.28
O=C(c1cccs1)N(CCS(=O)(=O)N1CCNCC1)C1CCCC1	10%	-1.14
N#Cc1ccc(NCc2nccc(N)n2)nc1	31%	-1.23
Cc1nc(C(=O)N2CCc3onc(-c4cccc5ccccc45)c3C2)cs1	-15%	1.69
CCCN(Cc1cc(NC(=O)c2cccs2)ccc1N(C)C)C(=O)Cc1cccs1	-6%	0.89
COc1ccc(NC(=O)CN2CCC[C@H]2c2nnc(C)o2)cc1OC	-3%	0.4
NC(=O)[C@@H]1C[C@@H](F)CN1CC(=O)Nc1ccc(Br)cn1	2%	-0.22
